According to PubChem BioAssay AID1508624 (National Center for Advancing Translational Sciences (NCATS), 2021):
Among all 48,000 compounds or so, about 120 (0.25%) were called active. About 4% were inconclusive and are not listed. Calls come from the whole dose curve; as a rule, active = well fitted activation curve with a large enough effect; inconclusive = small, poorly fitted or top-dose-only effect, or another doubt; inactive = no such curve, though single readings can be large or run the other way. The list shows a part of the results.

assay: Primary qHTS for Identification of Small Molecule Activators of Huntingtin-Antisense Promoter Activity; conditions: HEK293 HTT-AS promoter firefly luciferase reporter, 24 h; series mostly up to 57.5 µM; activity change, positive = activation: at the top concentration; note: nearly all actives have a fitted effect of over 55% in size
How it was run: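 Firefly luciferase signal from promoter-reporter HEK293 cells was scaled between vehicle (0%) and zero RLU (-100%). Compounds were tested at final concentrations of up to 57.5 uM over 24 h at 37 degrees C. PTC124 at 50 uM final served as control inhibitor.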

Activity change, positive = activation, inactive:
Cc1cccc(N2CCn3c2nc2c3c(=O)n(CCc3ccccc3)c(=O)n2C)c1 -2.53%
COc1cccc(-c2cn3c(n2)sc2cc(C(=O)NCCc4ccc(OC)c(OC)c4)ccc23)c1 -10.6%
CC(C)N1C(=O)C(O)(c2c[nH]c3ccccc23)c2ccccc21 (stereo not drawn) -19%
N#CC1=C(N)N(c2cccc(Cl)c2)C2=C(C(=O)CCC2)C1c1cc(CN2CCOCC2)cs1 (stereo not drawn) -8.91%
CSc1cccc(NC(=O)CN2CCN(Cc3ccccc3C)S2(=O)=O)c1 -15.8%
Cc1cccc(N2C(=O)CS(=O)(=O)C23C(=O)N(Cc2c(F)cccc2Cl)c2ccccc23)c1 (stereo not drawn) -22.4%
Cc1cc(C)cc(Oc2coc3cc(OCC(=O)NC4CCCCC4)ccc3c2=O)c1 -15.4%
Cc1cc(N)c(-n2cc3c(c2-c2ccc(Br)cc2)c(=O)n(C)c(=O)n3C)cc1C -28.1%
O=C(O)CCCNc1cc(N2CCN(C3CCCCC3)CC2)c2noc3c2c1C(=O)c1ccccc1-3 -28.8%
CCOc1ccc(-c2cc(C(=O)Nc3ccc(NC(C)=O)cc3)no2)cc1 -0.964%
CCOc1ccc(OCC)c(NC(=O)CC(C)n2nc(C)cc2C)c1 (stereo not drawn) -6.76%
Cc1ccc2onc(CNC(=O)NCc3cccc(Cl)c3)c2c1 -17.5%
CCc1ccccc1NC(=O)Cn1nc(C(F)(F)F)c2c1CCCC2 -10.9%
Clc1cccc(CNc2cc(-c3ccccc3)nc3nncn23)c1 -34.2%
Cc1cc(C)c(NC(=O)CCn2c(=O)c3cccn3c3cccnc32)c(C)c1 -5.11%
OCCN1CCN(C(c2ccccc2Cl)c2sc3nc(-c4ccco4)nn3c2O)CC1 (stereo not drawn) -2.11%
CNC(=O)c1nn(C)c2c1C(C)(C)Cc1cnc(Nc3ccc(N4CCN(C)CC4)cc3)nc1-2 -41.2%
FC(F)(F)Oc1ccc2c(c1)NC(c1ccncc1)=NC(c1cccs1)=N2 -11.9%
O=C(COc1ccc(Cl)cc1)Nc1ccc(C(=O)OCc2cc(=O)n3ccsc3n2)cc1 0%
C=Cc1ccc(Cn2c(C)c(CNCCc3ccccc3C)c(C(=O)O)c2C)cc1 -25.2%
Cc1ccn2c(=O)c(C(=O)NCCCN3CCCCC3C)c(O)nc2c1 (stereo not drawn) -6.89%
Cc1ccc(NC(=O)CCSc2nc(-c3ccco3)cc(C(F)(F)F)n2)cc1F 13.2% [at 11.5 µM, percent change from vehicle, -100% = no light]
COc1ccc2oc(=O)c(C(=O)Nc3ccc(C(=O)O)cc3)cc2c1 7.14%
Nc1ccc(S(=O)(=O)Nc2ccc(Cl)nn2)cc1 -6.68%
COc1ccc(OCC(=O)Nc2nnc3n2CCS3)cc1 -4.96%
CCOC(=O)N1CCN(Cc2nc3cc(NC(=O)c4ccc(OC)cc4)ccc3n2C(C)C)CC1 -53.4%
CCOc1ccc(NC(=O)CC2C(=O)N(c3ccc(C)cc3)C(=O)N2CCC2=CCCCC2)cc1 (stereo not drawn) 4.84%
Nc1nonc1-c1nc2ccccc2n1Cc1cccc(Cl)c1 -23.1%
Cc1ccc(CN(C(=O)c2ccccc2F)c2ccccn2)o1 9.19%
CC(C)c1ccc(NC(=O)c2ccc(F)c(S(=O)(=O)N3CCc4ccccc4C3)c2)cc1 -25.5%
O=C(c1cccn2c(=O)c3cc(Cl)ccc3nc12)N1CCN(c2ccccc2F)CC1 -5.35%
Cc1ccc(/C=N/NC(=O)c2ccccc2Oc2ccccc2)o1 -19.5%
CC(=O)Nc1ccc(S(=O)(=O)N2CCC(c3nnnn3-c3ccccc3)CC2)cc1 -31.4%
CCOc1ccc(-n2nc(CO)c(C(=O)NCCCc3ccccc3)n2)cc1 -3.69%
COc1ccc(Cl)cc1NC(=O)Cn1cc(C(=O)c2ccc(C)cc2)c(=O)c2ccc(C)nc21 -11%
CCOc1ccc(C(=O)Nc2cccc(C(=O)OCc3cc(=O)n4nc(C5CC5)sc4n3)c2)cc1 -45.6%
CCOC(=O)c1ccccc1NC(=O)CSc1nc(=O)[nH]c2c1CCC2 -7.88%
Cc1ccccc1CN1C(=O)C2(c3ccccc31)N(c1ccccc1)C(=O)CS2(=O)=O (stereo not drawn) -9.13%
COc1ccc(CCNC(=O)c2c(O)nc3ccccn3c2=O)cc1 -6.69%
COc1cccc(OCCSc2nc(C)c(Cc3ccccc3)c(=O)[nH]2)c1 -16.2%
Cc1ccc(N(C)C(=O)C2CCN(S(=O)(=O)c3c(C)noc3/C=C/c3c(C)cc(C)cc3C)CC2)cc1 -1.28%
COc1ccc(NC(=O)CCCN2C(=O)CCn3nc(-c4cn(C)c5ccccc45)cc32)cc1OC -12.4%
O=P(O)(O)OCC(O)CO (stereo not drawn) 0.532%
Cc1cccc(N2CCN(S(=O)(=O)c3ccc4[nH]c5c(c4c3)CCCCC5)CC2)c1C 11.3%
Cc1cccc(C(=O)NCC(=O)OCc2cc(=O)n3nc(C4CCCCC4)sc3n2)c1 -3.88%
COc1ccccc1C(=O)Nc1cc2c(cc1N1CCCC1)n(C)c(=O)c(=O)n2C -2.99%
COc1cccc(NC(=O)C2=C(C)C(=O)OC23CCN(C(C)=O)CC3)c1 -20.7%
COc1cc2c(cc1OC)C(COc1ccc3c(C)cc(=O)oc3c1)N(C(=O)c1cc(Cl)ccc1OC)CC2 (stereo not drawn) 14.4%
CCC(=O)N1c2ccc(S(=O)(=O)NCc3ccc(F)cc3)cc2CC1C (stereo not drawn) -32.1%
CCN(CC)C(=O)Cn1nnc2sc(-c3ccccc3)cc2c1=O 3.84%
C=CC[N+]1([C@H]2C[C@H]3[C@@H]4CC[C@H]5C[C@H](O)[C@@H](N6CCOCC6)C[C@]5(C)[C@@H]4CC[C@]3(C)[C@H]2OC(C)=O)CCCC1 -7.42%
Cc1ccc(NC(=O)C(C)n2nnc3sc4c(c3c2=O)CCCC4)cc1Cl (stereo not drawn) -13.7%
Cc1c(Cl)cccc1NC(=O)c1ncoc1-c1ccco1 12.3%
Oc1ccc(NCc2ccccc2OCc2ccccc2F)cc1 -1.7%
CC(=O)c1ccc(NC(=O)CCCSc2nc(-c3ccco3)cc(C(F)(F)F)n2)cc1 -39.2%
CCc1ccc(NC(=O)CSc2nc3ccccc3c(=O)n2CCNC(C)=O)cc1 4.22%
Cc1ccc(C(C)(O)c2nc3ccccc3s2)c(C)c1 (stereo not drawn) -14.5%
CCOC(=O)c1cccc(Nc2cc(-c3ccccc3)ncn2)c1 -41%
CCOC(=O)c1c(C)[nH]c(CCC(=O)NCc2ccccc2Cl)c1C -19%
Cc1c(Cl)cccc1NC(=O)c1ccc2snnc2c1 -3.74%
COc1ccccc1NC(=O)CCN1CCCCC1 -9.7%
CCOc1ccc(OCC)c(NC(=O)C2CCN(c3nnc(-n4cccc4)s3)CC2)c1 -11.7%
Cc1nc(-c2ccccc2)sc1CCNC(=O)C(=O)Nc1ccc2c(c1)OCO2 0.246%
CC(=O)c1ccc(Nc2cc(C)nc3nc(Cc4ccc(Cl)cc4)nn23)cc1 -35.5%
CCc1ccc2oc(C(=O)Nc3cc(C)ccc3C)cc(=O)c2c1 25.6% [at 11.5 µM, percent change from vehicle, -100% = no light]
O=C(Nc1cc2c(cc1C(=O)c1ccccc1Cl)OCCO2)c1ccccc1 -28.7%
CC(C)c1nn2c(=O)cc(COC(=O)c3ccccc3NC(=O)C3CCCCC3)nc2s1 -1.68%
CC1Cc2ccccc2N1C(=O)CSc1nnc(-c2ccccc2Cl)o1 (stereo not drawn) -10.2%
CN(C)c1ccc(CNC(=O)c2ccccc2NC(=O)c2nsc3ccccc23)cc1 19.8%
CCCOc1ccc(CNC(=O)c2ccc(-n3c(C)cc4c3CCC(C)C4)cc2)cc1 (stereo not drawn) -9.91%
Cc1cc2oc(C(=O)Nc3ccc(S(=O)(=O)Nc4ncccn4)cc3)cc(=O)c2cc1C 8.18%
Cc1ccc(NC(=O)Cn2ccn(-c3ccccc3)c(=O)c2=O)cc1 -6.45%
CCN(C(=O)CSc1nc2ccccc2[nH]1)c1ccccc1 -4.85%
Cc1ccc(Cn2cc(S(=O)(=O)c3cccc(Cl)c3)c(=O)c3cc(F)c(N4CCOCC4)cc32)cc1 6.18%
CCOc1ccc(C2NC(=O)c3c(COC)cc(C)nc3N2Cc2ccccc2)cc1OC (stereo not drawn) -1.52%
CC1CCC(Nc2nc3c(-c4cccc(C(F)(F)F)c4)nnn3c3ccccc23)CC1 (stereo not drawn) -4.08%
Cc1ccc(C)c(N2CCN(C(=O)c3ccc4c(c3)N(Cc3ccc(F)cc3)C(=O)c3ccccc3S4=O)CC2)c1 (stereo not drawn) -5.69%
COc1cc(OC)c(NC(=O)CCc2c(C)nc3cc(-c4ccccc4OC)nn3c2C)cc1Cl -26.3%
CC(C)OC(=O)c1c(NC(=O)C2c3ccccc3Oc3ccccc32)sc2c1CCCC2 -3.22% [at 11.5 µM, percent change from vehicle, -100% = no light]
COc1ccccc1-c1noc(CCC(=O)Nc2ccc(C)cc2C)n1 -15.5%
Cc1ccc(NC(=O)C2CCCN(S(=O)(=O)c3cn(C(C)C)cn3)C2)c(C)c1 (stereo not drawn) 4.14%
C[C@H]1C[C@H]2[C@@H]3CCC4=CC(=O)C=C[C@]4(C)[C@@]3(Cl)[C@@H](O)C[C@]2(C)[C@@]1(O)C(=O)CO -17.5%
CCC(Sc1nc2ccncc2[nH]1)C(=O)Nc1ccc(F)cc1 (stereo not drawn) -26.7%
CCOc1ccc(N(C)C(=O)C2CCN(S(=O)(=O)c3ccc4c(c3)CCCN4C(C)=O)CC2)cc1 -32%
COc1cccc(-n2c(=O)c3sc4ccccc4c3n(CC(=O)Nc3ccccc3OC)c2=O)c1 -31.2%
Cc1ccc(-n2nc(CO)c(C(=O)NCCc3ccccc3)n2)cc1 -13.4%
Cc1ccc(Cl)cc1N1CCN(C(=O)Cn2ncc3c([nH]c4ccccc43)c2=O)CC1 -3.2%
O=S(=O)(c1ccccc1)c1nnn2c1nc(Nc1ccccc1)c1cc(Cl)ccc12 -2.76%
Cc1cc(C)cc(NC(=O)C(NS(=O)(=O)c2cccc3nsnc23)c2ccccc2)c1 (stereo not drawn) -8.86%
O=C(CSc1nnc(-c2ccc(Cl)cc2)o1)N1CCc2ccccc21 0.0069%
CCOC(=O)N1CCN(C(=O)c2ccc3c(c2)N(Cc2cc(C)ccc2C)C(=O)c2ccccc2S3=O)CC1 (stereo not drawn) -42.8%
CCCCOc1nnc(-c2ccc(OCC)cc2)c2ccccc12 -20.1%
COc1ccc(CCNC(=O)CCc2cn(Cc3ccc(C)cc3)c3ccccc23)cc1OC -19.8%
